In all, about 110,000 compounds were measured (“z-score”: median about -0.1, highest 2% from about 2 on). The list shows a part of the results. Active and inactive are the calls of the source.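 The calls were made as follows: active = z-score in the third read window above 3 or below -3; inactive = the rest.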 Residues, ends and D or L forms follow the SMILES beside them. *: point of attachment. OBn = c1ccc(CO*)cc1
molecular target: Metabotropic glutamate receptor 8 (Rattus norvegicus) (UniProt P70579); assay: mGluR8 Gi/Go-coupled signaling modulation – cell-based, rat, thallium flux, HTS, primary screen (AID 488969); conditions: HEK293 rat mGluR8, GIRK (G protein-gated inwardly rectifying potassium channel) thallium flux, FluoZin2; at 10 µM; stronger effect = higher value; submaximal glutamate (EC20) added with thallium
Chain of UniProt P70579 (P70579 whole entry, looked up): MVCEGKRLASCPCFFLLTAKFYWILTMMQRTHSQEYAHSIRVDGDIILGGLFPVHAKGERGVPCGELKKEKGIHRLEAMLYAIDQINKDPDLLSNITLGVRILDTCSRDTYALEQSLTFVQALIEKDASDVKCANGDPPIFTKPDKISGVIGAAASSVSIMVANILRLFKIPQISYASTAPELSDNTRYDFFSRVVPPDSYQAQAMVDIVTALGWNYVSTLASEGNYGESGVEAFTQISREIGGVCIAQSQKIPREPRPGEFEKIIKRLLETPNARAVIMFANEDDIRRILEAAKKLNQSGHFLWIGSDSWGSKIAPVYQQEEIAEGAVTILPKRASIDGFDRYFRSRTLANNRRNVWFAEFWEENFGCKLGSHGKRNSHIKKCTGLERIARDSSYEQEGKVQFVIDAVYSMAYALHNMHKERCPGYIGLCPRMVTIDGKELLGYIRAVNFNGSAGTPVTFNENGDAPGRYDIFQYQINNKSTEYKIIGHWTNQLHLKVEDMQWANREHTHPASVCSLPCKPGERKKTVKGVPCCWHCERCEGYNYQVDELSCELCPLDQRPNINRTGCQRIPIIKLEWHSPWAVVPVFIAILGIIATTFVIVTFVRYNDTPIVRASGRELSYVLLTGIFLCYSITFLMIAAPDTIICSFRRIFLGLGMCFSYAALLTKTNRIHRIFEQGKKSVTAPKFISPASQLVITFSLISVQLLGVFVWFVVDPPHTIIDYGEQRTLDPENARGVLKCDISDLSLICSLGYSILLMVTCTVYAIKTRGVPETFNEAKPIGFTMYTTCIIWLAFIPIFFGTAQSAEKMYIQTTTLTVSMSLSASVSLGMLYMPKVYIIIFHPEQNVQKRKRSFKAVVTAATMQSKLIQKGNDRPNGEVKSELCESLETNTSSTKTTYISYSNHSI

Row | Compound | z-score
1 | Cc1ccc(NC(=S)NCc2cccs2)c(C)c1 | -0.449
2 | CC(C)CC(=O)NCCc1ccncc1 | -0.228
3 | Cc1cc(C(=O)COC(=O)c2n[nH]c3ccccc23)c(C)n1C | -0.0875
4 | CCOC(=O)c1nnc(-c2ccccc2)nc1Oc1ccccc1Cl | -0.346
5 | C=CCn1c(=O)c2ccccc2n2c(Sc3nnnn3-c3ccccc3)nnc12 | 0.266
6 | Cc1ccc(Cn2nnc3c(=O)n(Cc4cccc(C)c4)cnc32)cc1 | -0.357
7 | Cc1cc(C)c(NC(=O)CS(=O)CC(=O)N2CCN(c3ccccc3)CC2)c(C)c1 (stereo unspecified) | 0.0654
8 | CC1=NN(c2ccccc2)C(=O)/C1=C/C=C/c1ccccc1 | -0.00758
9 | CCc1nc(Nc2ccc3c(c2)OCCO3)c2oc3ccccc3c2n1 | -0.139
10 | COc1ccc(C2Nc3ccccc3C(=O)N2c2ccc(Cl)cc2)cc1Cn1cc([N+](=O)[O-])cn1 (stereo unspecified) | -0.199
11 | COc1cc(NC(=O)c2ccc(S(=O)(=O)N(C)C)cc2)cc(OC)c1OC | 0.924
12 | O=C(Nc1ccccc1C(=O)N1CCOCC1)c1ccc(F)cc1 | -0.431
13 | O=C(c1ccco1)N1CCN(C(=O)C2CCCN(S(=O)(=O)c3cccc4nsnc34)C2)CC1 (stereo unspecified) | -0.472
14 | COC(=O)c1cc(N=CC2=C(O)CC(C)(C)CC2=O)cc(C(=O)OC)c1 | -0.528
15 | O=C(CCCl)Nc1cc(SCCO)cc([N+](=O)[O-])c1 | -0.219
16 | COc1ccc(OC)c(NC(=O)c2ccc(-n3cccn3)nc2)c1 | -0.194
17 | CCc1ccc(C(=O)COC(=O)c2cccc(N3C(=O)c4c(C)nc5ccccc5c4C3=O)c2)cc1 | 0.138
18 | CCOC(=O)CN1C(=O)C(O)(C2CCc3ccccc3C2=O)c2ccccc21 (stereo unspecified) | 0.544
19 | CC(=O)c1c(C)[nH]c(C(=O)NCCc2cccc(C)c2)c1C | 0.204
20 | COc1ccc([N+](=O)[O-])cc1NC(=O)c1ccc(C)o1 | -0.379
21 | O=c1c(Oc2ccccc2Br)c(C(F)(F)F)oc2c(CN3CCCC3)c(O)ccc12 | -0.0912
22 | COc1ccccc1N1CCN(CC(=O)NCC2CCCO2)CC1 (stereo unspecified) | -1.21

Row | Compound | z-score
23 | COCCn1c(C)cc(C2=NNC(=Nc3ccc(OC)cc3)SC2)c1C | 0.139
24 | CCNC(=O)CSc1nc2cc([N+](=O)[O-])ccc2n1-c1cccc(C(F)(F)F)c1 | -0.0324
25 | COCc1cc(C)nc(Nc2ccccc2C)c1C#N | -0.365
26 | CC(=O)c1cc(F)c(N2CCOCC2)cc1C | -0.22
27 | CC(C(=O)Nc1ccc([N+](=O)[O-])cc1)N1CCN(C/C=C/c2ccccc2)CC1 (stereo unspecified) | -0.146
28 | COc1cc(NC(=O)c2cc(Cl)ccc2Cl)ccc1-c1cc2ccccc2oc1=O | -0.16
29 | CCn1c(CC(=O)Nc2ccc(C)cc2)nnc1SCC(=O)NCCc1ccccc1 | -0.0821
30 | Cc1cc(C)cc(C(=O)n2cnnc2N)c1 | -0.0618
31 | O=C(Nc1nnc(COc2ccc(F)cc2)s1)c1cccs1 | -0.982
32 | CCCc1cc(=O)[nH]c(SCC(=O)N2CCN(S(=O)(=O)c3ccc(Cl)cc3)CC2)n1 | -0.0806
33 | COc1c(Cl)cc(Cl)cc1CNCCNCC(C)O (stereo unspecified) | active: 3.74
34 | O=C(CCSCCc1ccccn1)Nc1ccc(Br)cc1F | -0.191
35 | S=C1Nc2cc(Cl)ccc2Sc2ccccc21 | active: 11.3
36 | CCC(C)C(N)C(=O)NC(CCC(=O)OCc1ccccc1)C(N)=O (stereo unspecified) (H-Ile-Glu(OBn)-NH2; configuration not given here) | 0.0296
37 | Cc1nnc(N(Cc2ccco2)C(=O)c2ccc(C#N)cc2)s1 | -0.951
38 | CC1(C)CC(=O)C2=C(C1)N1CCCCC1CC2=O (stereo unspecified) | -0.786
39 | CCc1c(C)nc2ncnn2c1N1CCCC(C(=O)Nc2ccc(NC(C)=O)cc2)C1 (stereo unspecified) | -0.0795
40 | COc1ccc(NC(=O)CC2SC(=Nc3ccccc3)NC2=O)cc1 (stereo unspecified) | -0.128
41 | CCn1c2ccccc2c2cc(NC(=O)CSc3nnc(-c4cccc(OC)c4)n3N)ccc21 | -0.0921
42 | CN(c1ccc(OCC(=O)OCC(=O)Nc2ccccc2)cc1)S(=O)(=O)c1ccc(F)cc1 | -1.26
43 | Cc1ccccc1N(CC(=O)N/N=C/c1ccc(Cl)cc1)C(=O)c1ccccc1 | -0.182
44 | O=C(Cc1cccs1)Nc1ccc(C(=O)O)cc1 | 0.25

Row | Compound | z-score
45 | CCc1cccc(C)c1NC(=O)C(c1ccc(O)cc1)N1CCC1=O (stereo unspecified) | 0.226
46 | CCOC(=O)C1=C(N2CCCCC2)c2cc3c(n2C1=O)CCCC3 | -1.72
47 | c1ccc2c(-c3nnc(SCc4cn5ccccc5n4)o3)c[nH]c2c1 | -0.481
48 | Cn1c2c(c(=O)n(C)c1=O)[C@@]1(C(=O)Nc3ccccc31)C(C#N)=C(N)O2 | 0.194
49 | COc1ccc(-c2nn(-c3ccccc3)cc2/C=C2/SC(=S)N(Cc3ccco3)C2=O)c(C)c1 | 0.0595
50 | CCN(CC)C(=O)c1ccc(CS(=O)(=O)c2ccc(OC)cc2)o1 | 0.0481
51 | CCN(CC)c1nc2c(s1)C(=O)NCCC2 | 0.541
52 | C=CCOc1c(CNc2ncn[nH]2)cccc1OC | 0.502
53 | O=C(CNc1ccccc1)N/N=C/c1ccc2c(c1)OCCO2 | -0.48
54 | COc1cccc(-n2nnc3c(=O)n(Cc4ccc(F)cc4)cnc32)c1 | -0.217
55 | Cc1cccc(OCCNC(=O)c2cccc(Oc3ccc(C(F)(F)F)cc3[N+](=O)[O-])c2)c1 | -0.134
56 | COc1ccc(S(=O)(=O)O/N=C2\CCSc3ccc(C)cc32)cc1 | 0.295
57 | Cc1ccc(Cl)cc1N1CCN(C(=O)CCS(=O)(=O)c2cccc3nonc23)CC1 | 0.119
58 | COc1ccccc1NC(=O)COc1ccc(/C=N/NC(=O)CSCc2cc(C)cc(C)c2)cc1 | -0.137
59 | Cc1cc(=O)oc2cc(OCC(=O)OCc3nnc(-c4ccccc4)o3)ccc12 | -0.34
60 | CCOC(=O)c1c(-c2ccccc2)oc2ccc(O)c(CN3CCCC3)c12 | 1.41
61 | CC(C)c1cc(C(=O)NNC(=S)NCc2ccco2)c(O)c(C(C)C)c1 | 0.25
62 | Cc1c(C(=O)OCC(=O)NCCN2C(=O)CSC2=O)oc2c1ccc1ccccc12 | -0.275
63 | CC1=CC(C)(C)NC(=S)N1c1cccc(C)c1 | 0.903
64 | COc1ccc(N(CC(O)CN2C(=O)NC(C)(C)C2=O)S(=O)(=O)c2ccc(C)cc2)cc1 (stereo unspecified) | 0.635
65 | CCN(CC)S(=O)(=O)c1ccc(C)c(NC(=S)Nc2cccc(S(=O)(=O)N3CCCCCC3)c2)c1 | 0.0889
66 | COCCCNC(=O)CCC(=O)NNc1nc2ccccc2c2nc(-c3ccccc3)nn12 | 0.614

Row | Compound | z-score
67 | CCOc1cc(C)c(S(=O)(=O)NC2CCCCC2)cc1C | -0.571
68 | CC1C/C(=N\Nc2ccc(S(N)(=O)=O)cc2[N+](=O)[O-])CC(C)(C)C1 (stereo unspecified) | -0.465
69 | CN1C(=O)/C(=C2\SC(=S)N(CC3CCCO3)C2=O)c2ccccc21 (stereo unspecified) | -0.000451
70 | Cc1c(CN(C)C(=O)c2sc3cc(Cl)ccc3c2Cl)cnn1C | -0.784
71 | Cc1ncc2c(c1OC(=O)c1ccc([N+](=O)[O-])cc1)COC(C)(C)OC2 | 0.136
72 | O=c1c2c(-c3cccs3)csc2ncn1-n1cccc1 | 0.132
73 | CC(C)(C)C(=O)NCCN1C(=O)S/C(=C\c2ccc([N+](=O)[O-])cc2)C1=O | -0.862
74 | O=C(Cc1ccccc1[N+](=O)[O-])N1CCN(c2ccccc2F)CC1 | 0.343
75 | COc1ccc(Cl)c(Cn2c(NCC(C)O)nc3c2c(=O)n(C)c(=O)n3C)c1 (stereo unspecified) | -0.64
76 | Cc1ccc(NC(=O)CN(C)C(=O)Cn2cc(C(F)(F)F)ccc2=O)cc1 | 0.152
77 | O=C(CCSCc1ccc(Cl)cc1)NCCC1=CCCCC1 | -0.242
78 | COc1cc(C2C(C#N)=C(N)OC3=C2C(=O)CC(C)(C)C3)c([N+](=O)[O-])cc1OC (stereo unspecified) | -0.0845
79 | CCC(=O)NC(Nc1sc2c(c1C(=O)OC)CCCC2)(C(F)(F)F)C(F)(F)F | -0.426
80 | Cc1cc(C)c(C)c(OCC(=O)NCCN(C)C)c1 | 0.432
81 | O=C(COc1ccc2ccccc2c1)NNC(=O)Cc1cccc2ccccc12 | -0.78
82 | Cc1occc1C(=O)NCCCCNC(=O)c1ccoc1C | 0.415
83 | Cc1sc(NC(=O)c2ccc(Cl)s2)c(C(N)=O)c1C | 0.0498
84 | Cc1ccc(C(=O)/C=C/Nc2ccccc2C(N)=O)o1 | -0.477
85 | CCC(C)Sc1nnc(-c2c[nH]c3ccccc23)n1CCOC (stereo unspecified) | -0.152
86 | CC(C)Cc1nc(SCC(=O)Nc2ccc(S(N)(=O)=O)cc2)n[nH]1 | -0.0964
87 | Cc1cc(N)n(-c2ncnc3scc(-c4ccc(Cl)cc4)c23)n1 | 0.703
88 | Cc1ccc(C(=O)n2c(-c3ccccc3)cnc2SCC(=O)Nc2ccc(C)cc2C)cc1 | -0.0916

Row | Compound | z-score
89 | O=C(/C=C/c1cccnc1)c1ccc(NC(=O)c2cccc(Br)c2)cc1 | -0.00474
90 | Cc1ccc2nc(NC(=O)CN(C)S(=O)(=O)c3ccc(Br)s3)sc2c1 | -0.381
91 | CC(=O)Nc1ccc(S(=O)(=O)n2cnc(C)c2)cc1 | 0.302
92 | C/C(Cl)=C\Cn1c(=O)c2c(nc3n2CCS3)n(C)c1=O | 0.117
93 | Cc1ccc(NC(=O)CCn2cccc2)cc1C | -0.0298
94 | COc1cc(/C=N/Nc2ncnc3sc4c(c23)CCC4)ccc1O | -1.15
95 | O=C(NCCN1CCOCC1)c1cn(-c2ccccc2)nc1-c1cccs1 | 1.31
96 | Cc1ccc(CNC(=O)C2c3ccccc3C(=O)N3CCc4ccccc4C23)o1 (stereo unspecified) | -0.749
97 | CCC(C)c1ccc(OCCCCN2CCOCC2)cc1 (stereo unspecified) | 0.469
98 | CN(C)Cc1c(O)c(Cl)cc2c3c(c(=O)oc12)CCCC3 | active: -5.65
99 | CNC(=S)NNC(=O)c1sccc1OCc1ccc(Cl)cc1Cl | -0.78
100 | Cc1cccc(NC(=O)C2(c3ccccc3)CC2(Cl)Cl)c1 (stereo unspecified) | -0.231
101 | O=C(COc1cccc(NC(=O)c2cccc([N+](=O)[O-])c2)c1)c1ccc(F)cc1 | 0.0439
102 | Cn1c(C(=O)N2CCCC(C(=O)NCc3ccc4c(c3)OCO4)C2)cc2sccc21 (stereo unspecified) | -1.36
103 | Cc1cc(C)cc(NC(=O)C(OC(=O)c2cccs2)c2ccccc2)c1 (stereo unspecified) | -0.336
104 | N#Cc1c(C(F)(F)F)cc(C2CC2)nc1N1CCCC1 | -0.113
105 | CCn1c2ccc(C)cc2c2nc3cc(C(=O)O)ccc3nc21 | -0.21
106 | O=C(c1ccc(-c2nnc(Nc3cccc(Cl)c3)c3ccccc23)cc1)N1C[C@H]2C[C@H](C1)c1cccc(=O)n1C2 | 0.0269
